Experimental findings from ChEMBL document CHEMBL4888484, “Replenishing the malaria drug discovery pipeline: Screening and hit evaluation of the MMV Hit Generation Library 1 (HGL1) against asexual blood stage Plasmodium falciparum ,using a nano luciferase reporter read-out” (2022) are described below.

The structures appear in SMILES notation. Out of some 150,000 compounds screened, about 540 (0.36%) showed an effect of 50% or more. Some of the results follow.

The subject of the assay is Plasmodium falciparum. The assay is described as follows: Primary screen in NF54 nanoGlo assay, in single point, at 2uM, 72h; a lower Z score goes with more inhibition. It is filed as functional, Erythrocyte. The following applies: timepoint 72 hour.
For orientation: % Inhibition means the change of the read-out against control, counted positive when it falls. For the molecule `C=CCNC(=O)COc1cccc(Cl)c1C#N`, the “% Inhibition” value is listed as -7% and the Z score is 1.41.

For `CC(C)(NCC(=O)N1CCCCC1)c1ccc2c(c1)OCO2`, the “% Inhibition” value worked out at 5% and the Z score is -0.66.

Regarding `COc1ccnc(N(C)C2CCCC2)n1`, the “% Inhibition” value is -7% and the Z score worked out at 0.72.

As for `COc1cccc(-c2cc3n(n2)CCCN(C(=O)c2ccc(N4CCCC4=O)cc2)C3)c1`, the “% Inhibition” value is on record as -15% and the Z score was 1.68.

Turning to `CC(=O)N(Cc1csc([C@@H]2CCCO2)n1)S(=O)(=O)c1ccc(Br)cc1`, the “% Inhibition” value is reported as -2% and the Z score is 0.37.

Consider `N#Cc1ccc(N[C@H]2CCN(C(=O)CCc3ccccc3)C2)cn1`, for which the “% Inhibition” value is given as -11% and the Z score was determined as 1.23.

In the case of `CC[C@@H](C(=O)NC1CCCCC1)N1CCS(=O)(=O)CC1`, the “% Inhibition” value turned out to be 2% and the Z score was -0.24.

In the case of `COc1ccnc(N2CC(c3ncc(C4CC4)cn3)C2)n1`, the “% Inhibition” value is reported as -8% and the Z score amounted to 1.19.

For `COCCc1nsc(NCc2ccncc2)n1`, the “% Inhibition” value is -7% and the Z score is reported as 0.77.

Take `COc1ccc(C2(CC(=O)N[C@H]3CCCCNC3=O)CC(=O)N(C3CCCC3)C2=O)cc1` (stereo not given in full): the “% Inhibition” value is recorded as -15% and the Z score came out at 2.71.

For the molecule `COc1ccc(C2C(C(=O)N3CCC(Cc4ccccc4)CC3)c3ccccc3C(=O)N2C)cc1` (stereo not given), the “% Inhibition” value was -11% and the Z score came to 1.8.

Consider `N#C[C@@H](NC(=O)c1n[nH]c2ccccc12)c1cnn(-c2ccccc2)c1`, for which the “% Inhibition” value is -11% and the Z score is on record as 1.36.

In the case of `CCOC(=O)c1cn(C)c(=O)n(C)c1=O`, the “% Inhibition” value was -8% and the Z score amounted to 1.56.

Take `COC[C@@H](c1ccccn1)N(C)C(=O)c1cc(C)nc(C)n1`: the “% Inhibition” value is reported as -15% and the Z score is 1.94.

On to `COCCn1c(Cc2ccccc2F)nnc1N1CCN2CCCC[C@H]2C1`, for which the “% Inhibition” value is reported as 3% and the Z score is -0.58.

For `CC(C)COc1ccccc1NC(=O)[C@@H]1CCCO1`, the “% Inhibition” value is -8% and the Z score is recorded as 1.31.

For `O=C(COC(=O)COc1ccccc1)Nc1ccc2c(c1)CCC2`, the “% Inhibition” value is reported as -11% and the Z score was found to be 2.02.

As for `COc1cccc(CN2CCN3C(=O)NC[C@H]3C2)c1`, the “% Inhibition” value is -5% and the Z score was 0.73.

`O=C(c1cc(O)ncn1)N1CCc2ccccc2C1`: the “% Inhibition” value was -13% and the Z score is 2.24.

In the case of `Cc1ccc(NC(=O)Cn2cc(-c3ccccc3)c3ncn(C4CC4)c(=O)c32)c(C)c1`, the “% Inhibition” value is recorded as -7% and the Z score is listed as 1.03.

`Cc1cc2c3c([nH]c2cc1S(=O)(=O)N1CCCCC1)CC(C)(C)CC3=O`: the “% Inhibition” value is 0% and the Z score was found to be 0.01.

Consider `Cc1nc(-c2ccccc2)sc1[C@H](C)NC(=O)N(C)c1ccc(F)cc1`, for which the “% Inhibition” value was 10% and the Z score is given as -1.42.

With `Cc1ccc(C)c(S(=O)(=O)N(C)c2ccc(Oc3ncnc4ccccc34)cc2)c1`, the “% Inhibition” value was determined as 2% and the Z score is on record as -0.39.

Consider `Cc1cc(C)n(C[C@H](C)NCc2ccc(-c3ncon3)cc2)n1`, for which the “% Inhibition” value turned out to be 10% and the Z score is -1.93.

For the molecule `COc1ccc2cccc(NC(=O)c3cc(-c4cc(OC)c(OC)c(OC)c4)n[nH]3)c2n1`, the “% Inhibition” value came out at 44% and the Z score is listed as -4.69.

Regarding `Cc1noc(C)c1CNc1nc2cc(Cl)ccc2n1C`, the “% Inhibition” value is 13% and the Z score was -1.53.

Consider `CCOC1CC(NC(=O)C2CCOCC2)C12CCCCC2` (stereo not given), for which the “% Inhibition” value was -7% and the Z score is listed as 1.06.

Regarding `COC[C@H]1NC(=O)CC[C@H]1C(=O)N1CCc2ccccc21`, the “% Inhibition” value is reported as -3% and the Z score is listed as 0.51.

In the case of `COc1cccc(CC(=O)N2CCC[C@H](CN3CCOCC3)CC2)c1`, the “% Inhibition” value is 7% and the Z score was -1.17.

Regarding `Cc1cccc(C)c1C=CC1CCN(C(=O)CN2CCC(C)CC2)CC1`, the “% Inhibition” value is -1% and the Z score came out at 0.17.

For the molecule `O=C(COc1ccccc1)N1CC(OCc2ccc(Cl)cc2)C1`, the “% Inhibition” value is on record as -12% and the Z score is 2.01.

As to `CN(CC(=O)N(C)Cc1cccc(C(F)(F)F)c1)Cc1cccnc1`, the “% Inhibition” value is -4% and the Z score is 0.61.

For `CN(C)C(=O)c1cn[nH]c1NC(=O)CCCNC(=O)OC(C)(C)C`, the “% Inhibition” value is on record as -7% and the Z score amounted to 1.28.

Turning to `CC(NCC(O)C(F)(F)F)C1(N2CCOCC2)CCCC1` (stereo not given), the “% Inhibition” value was -6% and the Z score came to 0.77.

Take `CC(NCC1CCCOC1)c1ccccc1Cl` (stereo not given): the “% Inhibition” value is listed as -1% and the Z score worked out at 0.09.

Consider `O=C(NCc1ccccc1F)c1nnc(C(=O)Nc2ccc(F)cc2)s1`, for which the “% Inhibition” value is given as -12% and the Z score turned out to be 1.07.

Regarding `Cc1noc(C)c1CCC(=O)N1CCC(S(=O)(=O)c2ccc(F)cc2)CC1`, the “% Inhibition” value was -15% and the Z score is 1.97.

As to `CC(=O)Nc1nc2c(s1)CN(S(=O)(=O)c1cccnc1)CC2`, the “% Inhibition” value is recorded as -9% and the Z score is listed as 1.27.

As for `CCC1CCCCN1CC(=O)N1CCOC(C)C1` (stereo not given), the “% Inhibition” value was -14% and the Z score was found to be 2.19.

Regarding `CC(C)N1CCN(C(=O)c2cnc(N)s2)C[C@@H]1C`, the “% Inhibition” value is 0% and the Z score is recorded as 0.03.

Consider `CCC1(CO)CCN(c2nc3c(s2)c(C)nn3C)CC1`, for which the “% Inhibition” value is on record as -13% and the Z score is on record as 1.67.

With `CCNC(=O)N(Cc1nc(CC)c(Cc2ccc(OC)cc2)c(=O)[nH]1)Cc1ccco1`, the “% Inhibition” value is listed as -5% and the Z score is 0.45.

In the case of `CO[C@H]1CN(C(=O)Cc2ccc(C)cc2)C[C@@H]1O`, the “% Inhibition” value is -21% and the Z score is reported as 2.71.

`c1cc2c(cc1OCc1noc3c1CCCC3)OCO2`: the “% Inhibition” value is -11% and the Z score worked out at 1.31.

As to `CC(=O)NC[C@H]1CN(c2nccn3nc(C(C)(C)C)cc23)CCO1`, the “% Inhibition” value was -3% and the Z score was found to be 0.5.

Regarding `CC1(C2CCN(C(=O)c3c(Cl)cccc3Cl)CC2)OCCO1`, the “% Inhibition” value came out at 31% and the Z score was -0.38.

Regarding `CN(CCc1noc(C(F)(F)F)n1)C(=O)c1scc2c1OCCO2`, the “% Inhibition” value is recorded as -16% and the Z score is 3.43.

Take `CN1CCN(C[C@@H]2CN(Cc3ccc(F)c(Cl)c3F)C[C@@H]2CO)CC1`: the “% Inhibition” value was 1% and the Z score was -0.15.

As for `CCOC(=O)N(C)C1CCN(C(=O)c2ccc(C3CCC3)cc2)CC1`, the “% Inhibition” value is reported as -9% and the Z score came to 1.19.

For `CC(C)(C)CC(=O)N(Cc1ccco1)Cc1cc(Cl)ccc1OS(C)(=O)=O`, the “% Inhibition” value is 3% and the Z score is listed as -0.47.

`Cc1nn(CCC(=O)c2ccc(Cl)cc2)c(C)c1Cl`: the “% Inhibition” value is -16% and the Z score was 1.89.

Turning to `COCc1nc(COC)n(Cc2cccc(Cl)c2)n1`, the “% Inhibition” value is listed as -5% and the Z score stood at 0.9.

Take `CCc1cn[nH]c1[C@H]1CCCN(C(=O)c2cc(-c3c(C)nn(C)c3C)nn2C)C1`: the “% Inhibition” value was -11% and the Z score was determined as 2.17.

Turning to `Cc1cnc(CNC(=O)[C@H](C)c2n[nH]c(=O)c3ccccc23)cn1`, the “% Inhibition” value was -1% and the Z score came out at 0.11.

Take `c1ccc(CNc2nc(-c3cnccn3)ns2)cc1`: the “% Inhibition” value amounted to 10% and the Z score was -1.22.
